Laboratory results reported in article PMC9911399, “Two distinct binding modes provide the RNA-binding protein RbFox with extraordinary sequence specificity”.
Residue numbers refer to the chain shown, from its start. This is one part of the list.

T1: RBFOX1 RRM (Homo sapiens, UniProt Q9NWB1 109-208)
T1 sequence: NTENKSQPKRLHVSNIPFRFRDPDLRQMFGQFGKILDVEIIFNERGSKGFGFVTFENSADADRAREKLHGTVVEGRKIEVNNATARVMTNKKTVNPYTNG

B1: ACAUUAU (DNA:RNA)
RNA: GGGAGACCGGAAUUCAGAUUGUCCACAUUAUUUAAAUCCCGUCGUAGCCACCA
DNA 1: CAATCTGAATTCCGGTCTCCC
DNA 2: TGGTGGCTACGACGGGATT
B2: AGAGAUA (DNA:RNA)
RNA: B1 RNA with C26G, U28G, U29A, A30U, U31A
DNA 1: CAATCTGAATTCCGGTCTCCC
DNA 2: TGGTGGCTACGACGGGATT
B3: GCUAAGG (DNA:RNA)
RNA: B1 RNA with A25G, A27U, U28A, U29A, A30G, U31G
DNA 1: CAATCTGAATTCCGGTCTCCC
DNA 2: TGGTGGCTACGACGGGATT
B4: GGAAACG (DNA:RNA)
RNA: B1 RNA with A25G, C26G, U28A, U29A, A30C, U31G
DNA 1: CAATCTGAATTCCGGTCTCCC
DNA 2: TGGTGGCTACGACGGGATT
B5: UGCCUCC (DNA:RNA)
RNA: B1 RNA with A25U, C26G, A27C, U28C, A30C, U31C
DNA 1: CAATCTGAATTCCGGTCTCCC
DNA 2: TGGTGGCTACGACGGGATT
B6: GGAGUCA (DNA:RNA)
RNA: B1 RNA with A25G, C26G, U28G, A30C, U31A
DNA 1: CAATCTGAATTCCGGTCTCCC
DNA 2: TGGTGGCTACGACGGGATT
B7: UUGCUAU (DNA:RNA)
RNA: B1 RNA with A25U, C26U, A27G, U28C
DNA 1: CAATCTGAATTCCGGTCTCCC
DNA 2: TGGTGGCTACGACGGGATT
B8: AUCGGCG (DNA:RNA)
RNA: B1 RNA with C26U, A27C, U28G, U29G, A30C, U31G
DNA 1: CAATCTGAATTCCGGTCTCCC
DNA 2: TGGTGGCTACGACGGGATT
B9: GGAAAAU (DNA:RNA)
RNA: B1 RNA with A25G, C26G, U28A, U29A
DNA 1: CAATCTGAATTCCGGTCTCCC
DNA 2: TGGTGGCTACGACGGGATT

What follows are binders tested against T1, RBFOX1 RRM (assay: EMSA; HiTS-Eq, 1 nM pool, 10 min; buffer printed only for the single-RNA assays: 10 mM Tris pH 7.5, 150 mM NaCl, 3.4 mM EDTA, 0.001% NP-40, 30 C). Conditions: tags: His6 N-terminal (pET28a); label: 5' 32P.
Method in brief: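 These values rest on relative association constants, computed from read-count changes of each RNA species versus the control reaction and normalised to the cognate motif. Reads came from free RNA recovered by 8% native PAGE after purified RbFox RRM (wild type or mutant) at increasing concentrations was equilibrated for 10 min in 50 µL with 1 nM of a 5′-radiolabelled pool with 7 randomized nucleotides and DNA-annealed flanks.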

Binder	binding signal
B1	0.000894 KA relative to UGCAUGU
B2	0.00687 KA relative to UGCAUGU
B3	0.0109 KA relative to UGCAUGU
B4	0.0117 KA relative to UGCAUGU
B5	0.00846 KA relative to UGCAUGU
B6	0.00993 KA relative to UGCAUGU
B7	0.0124 KA relative to UGCAUGU
B8	0.011 KA relative to UGCAUGU
B9	0.00757 KA relative to UGCAUGU
